Results published in paper PMC9911399, “Two distinct binding modes provide the RNA-binding protein RbFox with extraordinary sequence specificity”.
Substitutions are numbered along the chain they refer to; changes in the protein carry UniProt numbers. Some of the results follow.

T1: RBFOX1 RRM RbFoxmut (Fox-RRM*) (Homo sapiens, UniProt Q9NWB1 109-208, R118D;E147R;N151S;E152T)
T1 sequence: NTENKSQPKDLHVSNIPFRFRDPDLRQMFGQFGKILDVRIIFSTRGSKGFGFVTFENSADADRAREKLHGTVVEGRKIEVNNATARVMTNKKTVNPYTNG

B1: GUAUAGU (DNA:RNA)
RNA: GGGAGACCGGAAUUCAGAUUGUCCGUAUAGUUUAAAUCCCGUCGUAGCCACCA
DNA 1: CAATCTGAATTCCGGTCTCCC
DNA 2: TGGTGGCTACGACGGGATT
B2: CAGGCUG (DNA:RNA)
RNA: GGGAGACCGGAAUUCAGAUUGUCCCAGGCUGUUAAAUCCCGUCGUAGCCACCA
DNA 1: CAATCTGAATTCCGGTCTCCC
DNA 2: TGGTGGCTACGACGGGATT
B3: AAAGGGC (DNA:RNA)
RNA: B2 RNA with C25A, G27A, C29G, U30G, G31C
DNA 1: CAATCTGAATTCCGGTCTCCC
DNA 2: TGGTGGCTACGACGGGATT
B4: GGUCACA (DNA:RNA)
RNA: B1 RNA with U26G, A27U, U28C, G30C, U31A
DNA 1: CAATCTGAATTCCGGTCTCCC
DNA 2: TGGTGGCTACGACGGGATT
B5: CCUAGCC (DNA:RNA)
RNA: B2 RNA with A26C, G27U, G28A, C29G, U30C, G31C
DNA 1: CAATCTGAATTCCGGTCTCCC
DNA 2: TGGTGGCTACGACGGGATT
B6: GAAGGUG (DNA:RNA)
RNA: B2 RNA with C25G, G27A, C29G
DNA 1: CAATCTGAATTCCGGTCTCCC
DNA 2: TGGTGGCTACGACGGGATT
B7: CGGCAUU (DNA:RNA)
RNA: B2 RNA with A26G, G28C, C29A, G31U
DNA 1: CAATCTGAATTCCGGTCTCCC
DNA 2: TGGTGGCTACGACGGGATT
B8: GUCUGUC (DNA:RNA)
RNA: B1 RNA with A27C, A29G, G30U, U31C
DNA 1: CAATCTGAATTCCGGTCTCCC
DNA 2: TGGTGGCTACGACGGGATT
B9: GUCGUAA (DNA:RNA)
RNA: B1 RNA with A27C, U28G, A29U, G30A, U31A
DNA 1: CAATCTGAATTCCGGTCTCCC
DNA 2: TGGTGGCTACGACGGGATT
B10: UUGUACA (DNA:RNA)
RNA: B1 RNA with G25U, A27G, G30C, U31A
DNA 1: CAATCTGAATTCCGGTCTCCC
DNA 2: TGGTGGCTACGACGGGATT
B11: CAUUCAU (DNA:RNA)
RNA: B2 RNA with G27U, G28U, U30A, G31U
DNA 1: CAATCTGAATTCCGGTCTCCC
DNA 2: TGGTGGCTACGACGGGATT
B12: CCCUUCU (DNA:RNA)
RNA: B1 RNA with G25C, U26C, A27C, A29U, G30C
DNA 1: CAATCTGAATTCCGGTCTCCC
DNA 2: TGGTGGCTACGACGGGATT
B13: AUUCCUG (DNA:RNA)
RNA: B2 RNA with C25A, A26U, G27U, G28C
DNA 1: CAATCTGAATTCCGGTCTCCC
DNA 2: TGGTGGCTACGACGGGATT
B14: AUGUAUA (DNA:RNA)
RNA: B1 RNA with G25A, A27G, G30U, U31A
DNA 1: CAATCTGAATTCCGGTCTCCC
DNA 2: TGGTGGCTACGACGGGATT
B15: GUGGUCA (DNA:RNA)
RNA: B2 RNA with C25G, A26U, C29U, U30C, G31A
DNA 1: CAATCTGAATTCCGGTCTCCC
DNA 2: TGGTGGCTACGACGGGATT
B16: GCGAUGC (DNA:RNA)
RNA: B1 RNA with U26C, A27G, U28A, A29U, U31C
DNA 1: CAATCTGAATTCCGGTCTCCC
DNA 2: TGGTGGCTACGACGGGATT
B17: CCAGAGA (DNA:RNA)
RNA: B1 RNA with G25C, U26C, U28G, U31A
DNA 1: CAATCTGAATTCCGGTCTCCC
DNA 2: TGGTGGCTACGACGGGATT
B18: UCAGCUU (DNA:RNA)
RNA: B2 RNA with C25U, A26C, G27A, G31U
DNA 1: CAATCTGAATTCCGGTCTCCC
DNA 2: TGGTGGCTACGACGGGATT
B19: UUUAGUG (DNA:RNA)
RNA: B2 RNA with C25U, A26U, G27U, G28A, C29G
DNA 1: CAATCTGAATTCCGGTCTCCC
DNA 2: TGGTGGCTACGACGGGATT
B20: GCAGGUC (DNA:RNA)
RNA: B2 RNA with C25G, A26C, G27A, C29G, G31C
DNA 1: CAATCTGAATTCCGGTCTCCC
DNA 2: TGGTGGCTACGACGGGATT

molecular target: T1, RBFOX1 RRM RbFoxmut (Fox-RRM*); experiment: EMSA; HiTS-Eq, 1 nM pool, 10 min; buffer printed only for the single-RNA assays: 10 mM Tris pH 7.5, 150 mM NaCl, 3.4 mM EDTA, 0.001% NP-40, 30 C; details: tags: His6 N-terminal (pET28a); label: 5' 32P
Method in brief: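 Relative association constants, normalised to the cognate motif, were derived by comparing read counts of each RNA species with those of the control reaction. The RNA sequenced was the free fraction, separated by 8% native PAGE after a 10 min equilibration in 50 µL of 1 nM 5′-radiolabelled RNA (7 randomized nucleotides) with increasing concentrations of purified wild-type or mutant RbFox RRM.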

Binder | binding signal
B1 | 0.15 KA relative to UGCAUGU
B2 | 0.157 KA relative to UGCAUGU
B3 | 0.0621 KA relative to UGCAUGU
B4 | 0.0604 KA relative to UGCAUGU
B5 | 0.149 KA relative to UGCAUGU
B6 | 0.102 KA relative to UGCAUGU
B7 | 0.0736 KA relative to UGCAUGU
B8 | 0.257 KA relative to UGCAUGU
B9 | 0.144 KA relative to UGCAUGU
B10 | 0.101 KA relative to UGCAUGU
B11 | 0.13 KA relative to UGCAUGU
B12 | 0.0646 KA relative to UGCAUGU
B13 | 0.0874 KA relative to UGCAUGU
B14 | 0.23 KA relative to UGCAUGU
B15 | 0.137 KA relative to UGCAUGU
B16 | 0.0847 KA relative to UGCAUGU
B17 | 0.125 KA relative to UGCAUGU
B18 | 0.112 KA relative to UGCAUGU
B19 | 0.147 KA relative to UGCAUGU
B20 | 0.128 KA relative to UGCAUGU
